Results on four molecules are retold here after patent publication US20250034274A1.

A word on the EC50 (read off the curve): it is the concentration at which the effect is half-maximal. Low values mean an effect from little substance, high ones a need for much substance.

In test [1] the target is biotinylated human TROP2 antigen (human) (UniProt P09758). In words: ELISA, immobilised biotinylated human TROP2, anti-human IgG-HRP, chemiluminescence; without protease.
For test [2] the target is unchanged. In words: ELISA, immobilised biotinylated human TROP2, anti-human IgG-HRP, chemiluminescence; antibody pre-incubated with uPA. A general note: An ELISA detects its analyte on a solid surface through an enzyme-linked reagent.
Test [3] shares this target. The description is as above. The source holds these as a separate data set.
The target is the same in test [4]. In words: ELISA, immobilised biotinylated human TROP2, anti-human IgG-HRP, chemiluminescence; antibody pre-incubated with CAPN1.

Sequence of UniProt P09758 (P09758 27-274): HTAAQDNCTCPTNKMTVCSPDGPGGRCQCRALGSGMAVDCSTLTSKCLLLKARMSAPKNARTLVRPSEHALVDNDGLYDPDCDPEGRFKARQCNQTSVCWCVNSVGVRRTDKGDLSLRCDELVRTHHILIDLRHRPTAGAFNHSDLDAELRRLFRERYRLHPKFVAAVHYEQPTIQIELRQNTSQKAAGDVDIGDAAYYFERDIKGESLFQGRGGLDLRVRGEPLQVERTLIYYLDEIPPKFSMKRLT

B1: anti-TROP2 masked antibody MHT3203 (antibody)
heavy: GYLALKHPWPGLAEGSGGGGSGRSANAGGPLFAAPGGSQVQLVQSGAEVKKPGASVKVSCKASGYTFTTAGMQWVRQAPGQGLEWMGWINTHSGVPKYAEDFKGRVTISADTSTSTAYLQLSSLKSEDTAVYYCARSGFGSSYWYFDVWGQGTLVTVSSASTKGPSVFPLAPSSKSTSGGTAALGCLVKDYFPEPVTVSWNSGALTSGVHTFPAVLQSSGLYSLSSVVTVPSSSLGTQTYICNVNHKPSNTKVDKRV[human IgG1 Fc not shown]
light: DIQMTQSPSSLSASVGDRVTITCKASQDVSTAVAWYQQKPGKAPKLLIYSASYRYTGVPSRFSGSGSGTDFTLTISSLQPEDFAVYYCQQHYITPLTFGQGTKLEIKRTVAAPSVFIFPPSDEQLKSGTASVVCLLNNFYPREAKVQWKVDNALQSGNSQESVTEQDSKDSTYSLSSTLTLSKADYEKHKVYACEVTHQGLSSPVTKSFNRGEC
In the case of B1, the concentration for a half-maximal effect (EC50 (read off the curve)) in test [1] worked out at 90 nM; in test [2], 0.5 nM; in test [3], 0.6 nM; in test [4], 4 nM.

B2: anti-TROP2 masked antibody MHT3219 (antibody)
heavy: GYLALKHPWPGLAEGSGGGGPLFAAPGGSGRSANAGGSQVQLVQSGAEVKKPGASVKVSCKASGYTFTTAGMQWVRQAPGQGLEWMGWINTHSGVPKYAEDFKGRVTISADTSTSTAYLQLSSLKSEDTAVYYCARSGFGSSYWYFDVWGQGTLVTVSSASTKGPSVFPLAPSSKSTSGGTAALGCLVKDYFPEPVTVSWNSGALTSGVHTFPAVLQSSGLYSLSSVVTVPSSSLGTQTYICNVNHKPSNTKVDKRV[human IgG1 Fc not shown]
light: DIQMTQSPSSLSASVGDRVTITCKASQDVSTAVAWYQQKPGKAPKLLIYSASYRYTGVPSRFSGSGSGTDFTLTISSLQPEDFAVYYCQQHYITPLTFGQGTKLEIKRTVAAPSVFIFPPSDEQLKSGTASVVCLLNNFYPREAKVQWKVDNALQSGNSQESVTEQDSKDSTYSLSSTLTLSKADYEKHKVYACEVTHQGLSSPVTKSFNRGEC
Regarding B2, the 50% effective concentration (EC50 (read off the curve)) is 100 nM in test [1] and 0.5 to 0.6 nM in test [3].

B3: anti-TROP2 masked antibody MHT3423 (antibody)
heavy: GYLALKHPWPGLAEGSGGGGSGRSAGGGGGSGGGGSGGGGSGGGGSQVQLVQSGAEVKKPGASVKVSCKASGYTFTTAGMQWVRQAPGQGLEWMGWINTHSGVPKYAEDFKGRVTISADTSTSTAYLQLSSLKSEDTAVYYCARSGFGSSYWYFDVWGQGTLVTVSSASTKGPSVFPLAPSSKSTSGGTAALGCLVKDYFPEPVTVSWNSGALTSGVHTFPAVLQSSGLYSLSSVVTVPSSSLGTQTYICNVNHKPSNTKVDKRV[human IgG1 Fc not shown]
light: DIQMTQSPSSLSASVGDRVTITCKASQDVSTAVAWYQQKPGKAPKLLIYSASYRYTGVPSRFSGSGSGTDFTLTISSLQPEDFAVYYCQQHYITPLTFGQGTKLEIKRTVAAPSVFIFPPSDEQLKSGTASVVCLLNNFYPREAKVQWKVDNALQSGNSQESVTEQDSKDSTYSLSSTLTLSKADYEKHKVYACEVTHQGLSSPVTKSFNRGEC
As to B3, the EC50 (read off the curve) in test [1] was found to be 60 nM; in test [3] it was 0.5 nM.

B4: anti-TROP2 masked antibody MHT3202 (antibody)
heavy: GYLALKHPWPGLAEGSGGGGSGRSAGGPLFAAPGGSQVQLVQSGAEVKKPGASVKVSCKASGYTFTTAGMQWVRQAPGQGLEWMGWINTHSGVPKYAEDFKGRVTISADTSTSTAYLQLSSLKSEDTAVYYCARSGFGSSYWYFDVWGQGTLVTVSSASTKGPSVFPLAPSSKSTSGGTAALGCLVKDYFPEPVTVSWNSGALTSGVHTFPAVLQSSGLYSLSSVVTVPSSSLGTQTYICNVNHKPSNTKVDKRV[human IgG1 Fc not shown]
light: DIQMTQSPSSLSASVGDRVTITCKASQDVSTAVAWYQQKPGKAPKLLIYSASYRYTGVPSRFSGSGSGTDFTLTISSLQPEDFAVYYCQQHYITPLTFGQGTKLEIKRTVAAPSVFIFPPSDEQLKSGTASVVCLLNNFYPREAKVQWKVDNALQSGNSQESVTEQDSKDSTYSLSSTLTLSKADYEKHKVYACEVTHQGLSSPVTKSFNRGEC
In the case of B4, the EC50 (read off the curve) amounted to 100 nM in test [1], 0.6 nM in test [3] and 5 nM in test [4].
